Source: PubChem BioAssay AID1159614 (National Center for Advancing Translational Sciences (NCATS), 2016)
Screen size: about 45,000 compounds; about 65 (0.1%) were called active. Calls come from the whole dose curve; as a rule, active = well fitted activation curve with a large enough effect; inconclusive = small, poorly fitted or top-dose-only effect; inactive = no such curve, though single readings can be large or run the other way. The list shows a part of the results.

These molecules were tested against Galactocerebrosidase (Homo sapiens) (UniProt P54803) (assay: A Novel Cell-Based Assay to Identify Small Molecules for B -Galactocerebrosidase). Details: 145M-Twi-hGALC-G270D cells (Twitcher mouse brain line with human GALC G270D), HMU-beta-Gal fluorescence, 48 h; series mostly up to 57.5 µM; activation: at the top concentration.
In short: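 Fluorescence readout: HMU-β-gal cleavage by mutant GALC (0.1 mM final, citrate/phosphate pH 5.2 with 1 mg/mL taurocholate), stopped with carbonate/bicarbonate plus Triton X-100. Cells: murine Twitcher 145M-Twi expressing human G270D GALC; qHTS for activators.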
Note: 0% is about no effect; nearly all actives have a fitted effect of over 65% in size.

Sequence of UniProt P54803 (P54803 whole entry, looked up): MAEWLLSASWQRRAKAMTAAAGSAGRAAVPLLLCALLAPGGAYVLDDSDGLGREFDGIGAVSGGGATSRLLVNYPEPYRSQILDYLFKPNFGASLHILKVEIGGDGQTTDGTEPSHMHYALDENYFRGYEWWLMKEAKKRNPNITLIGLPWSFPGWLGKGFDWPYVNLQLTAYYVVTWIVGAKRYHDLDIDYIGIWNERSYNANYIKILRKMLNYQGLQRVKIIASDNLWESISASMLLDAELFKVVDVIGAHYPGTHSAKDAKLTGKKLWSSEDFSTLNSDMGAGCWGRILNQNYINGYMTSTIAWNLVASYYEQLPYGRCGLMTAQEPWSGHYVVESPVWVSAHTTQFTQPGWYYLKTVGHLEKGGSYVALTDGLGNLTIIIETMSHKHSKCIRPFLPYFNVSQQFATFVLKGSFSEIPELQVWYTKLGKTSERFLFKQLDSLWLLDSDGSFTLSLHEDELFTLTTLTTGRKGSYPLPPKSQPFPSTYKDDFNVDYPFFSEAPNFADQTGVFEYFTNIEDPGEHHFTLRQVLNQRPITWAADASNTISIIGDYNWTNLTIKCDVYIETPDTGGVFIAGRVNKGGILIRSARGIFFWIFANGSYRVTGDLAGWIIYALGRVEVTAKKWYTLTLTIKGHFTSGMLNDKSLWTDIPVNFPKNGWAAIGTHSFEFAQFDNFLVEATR

SMILES	activation
COc1ccc(NC(=O)c2cc3c(=O)n(Cc4cccnc4)ccc3nc2C)c(OC)c1	inactive: -16.8%
Cc1ccc(CNC(=O)Cn2ccn(-c3ccc(F)cc3)c(=O)c2=O)cc1	inactive: -20.2%
O=C(Nc1ccc(N2CCOCC2)c(C(=O)O)c1)c1ccc(Br)cc1	inactive: 28.4%
Cc1cccc(CN2C(=O)c3ccccc3S(=O)(=O)c3ccc(C(=O)NC4CCCCC4)cc32)c1	inactive: -5.66%
Cc1ccc2nc3c(cc(C(=O)NCc4ccco4)c(=N)n3C(C)C)c(=O)n2c1	inactive: -17.1%
Cc1ccc(NC(=O)c2c(C)oc3ncn(CC(C)C)c(=O)c23)nc1	inactive: 5.75%
CC(=O)c1cccc(NC(=O)Cn2cc(C(=O)c3cccc(Cl)c3)c(=O)c3ccc(C)nc32)c1	inactive: -11.9%
CCCC(=O)Nc1ccccc1C(=O)OCc1cc(=O)n2nc(C(C)C)sc2n1	inactive: -15.5%
CCOC(=O)c1cc(S(=O)(=O)NCc2ccc(OC)cc2)[nH]n1	inactive: -26.7%
COc1ccc(OCc2ccc(-c3nc(C#N)c(NCc4cccnc4)o3)o2)cc1	inactive: -10.7%
Cc1cccc2c(=O)cc(CSc3ccccc3NC(=O)C(C)(C)C)[nH]c12	inactive: -11.7%
CCC(=O)N1CCCc2cc(S(=O)(=O)N3CCC(C(=O)Nc4ccc(C#N)cc4)CC3)ccc21	inactive: -12.4%
Cc1cc(C)cc(NC(=O)N2CCN(C(=O)c3nsc4ccccc34)CC2)c1	inactive: -13.1%
COC(=O)c1ccc(-n2c(/C=C/c3cc(OC)c(OC)c(OC)c3)nc3cc(Cl)ccc3c2=O)cc1	inactive: -8.79%
CCN(C(=O)Cn1c(=O)n(Cc2ccc3c(c2)OCO3)c(=O)c2ccc(C(=O)NC3CCCCC3)cc21)c1cccc(C)c1	inactive: -21.9%
COc1ccc(OC)c(S(=O)(=O)N2CCN(Cc3nc4ccc(C)cc4o3)CC2)c1	inactive: -5.05%
Cc1ccc(Cn2cc(S(=O)(=O)c3ccc(Cl)cc3)c(=O)c3cc4c(cc32)OCO4)cc1	inactive: -10.1%
CC(=O)Nc1ccc(NC(=O)C(NS(=O)(=O)c2ccc(Br)s2)c2ccccc2)cc1 (stereo not given)	inactive: 0.351%
Cc1ccc(CNC(=O)CCc2nc3cccnc3n2Cc2ccccc2)cc1	inactive: -27.1%
COc1cc(NC(=O)Cn2nnnc2-c2ccccc2F)cc(OC)c1OC	inactive: -5.28%
CC(=O)N1CCc2cc(S(=O)(=O)NC(Cc3ccccc3)C(=O)NCc3ccccc3Cl)ccc21 (stereo not given)	inactive: -17.3%
COCc1oc2ccc(NS(=O)(=O)c3ccc(C)cc3)cc2c1C(=O)OC	inactive: -23.7%
CCCc1ccc(OC(C)c2nc(-c3ccc(-n4cccc4)cc3)no2)cc1 (stereo not given)	inactive: -4.74%
O=C(CCNS(=O)(=O)c1ccc2c(c1)CCN2C(=O)C1CC1)N1CCN(c2cccc(C(F)(F)F)c2)CC1	inactive: -44.7%

SMILES	activation
Cc1ccc(OCCSc2nc3ccc(NC(=O)c4ccco4)cc3s2)cc1	inactive: -7.44%
O=C1CC(=O)Nc2cc(S(=O)(=O)Nc3ccc(F)cc3Cl)ccc2N1	inactive: -17.3%
CCOc1ccc2nc(N(Cc3cccnc3)C(C)=O)sc2c1	inactive: -22.3%
COc1ccc(-c2cc3ccc(O)c(CN4CCCCC4C)c3oc2=O)cc1OC (stereo not given)	inactive: -17.3%
CCCCn1cc(S(=O)(=O)c2ccc(OCC)cc2)c(=O)c2cc(OC)c(OC)cc21	inactive: 4.1%
Cc1ccc(NC(=O)CN(CCc2ccccc2)S(=O)(=O)c2ccccc2)c(C)c1	inactive: -10.9%
CCOc1ccc(CNC(=O)Cn2nc(C)n3cccc3c2=O)cc1	inactive: 4.66%
CCc1ccc(-n2nc3ccc(NC(=O)c4cc(Cl)c(OC)c(Cl)c4)cc3n2)cc1	inactive: -11.3%
Cc1ccc(CNC(=O)c2cccc(N3CCCS3(=O)=O)c2)cc1	inactive: -7.92%
COC(=O)c1cccc(NC(=O)N(C)CCc2c(C)nn(C)c2C)c1	inactive: -12.9%
C[N+](C)(C)CCOC(N)=O	inactive: -8.26%
CN(C(=O)CSc1nc2ccc(NC(=O)c3ccccc3F)cc2s1)c1ccccc1	inactive: 2%
COCCN1Cc2cccc(C(=O)Nc3ccc(C)c(F)c3)c2C1=O	inactive: 1.23%
Cc1cc(C)cc(NC(=O)C(=O)NCC(c2ccc3c(c2)OCO3)N2CCOCC2)c1 (stereo not given)	inactive: -17.7%
Cc1ccc(CNC(=O)Cn2c(=O)n(Cc3ccccc3)c(=O)c3c2c2cc(C)ccc2n3C)cc1	inactive: -4.09%
COc1ccc(CN2CCc3nc(Nc4ccccc4)ncc3C2)c(OC)c1OC	inactive: -34.6%
CCOc1ccc(N2CC(C)Cn3c2nc2c3c(=O)n(CC(=O)O)c(=O)n2C)cc1 (stereo not given)	inactive: -4.35%
COc1cc(N2C(=O)CSC23C(=O)N(C)c2ccccc23)cc(OC)c1OC (stereo not given)	inactive: -7.5%
CC(C)(C)NC[C@H](O)COc1cccc2c1CCCC2=O	inactive: -8.93%
CC(C)c1ccc(NC(=O)c2cn(C3CCCCC3)c(=O)c3c2c2ccccc2n3C)cc1	inactive: -22.4%
Fc1ccc(-c2cc(-c3nc(-c4ccccc4)no3)[nH]n2)cc1	inactive: -12.6%
COc1ccc(Nc2nc3c(S(=O)(=O)c4ccccc4)nnn3c3ccc(Cl)cc23)c(OC)c1	inactive: -9.32%
COc1ccccc1C1=NS(=O)(=O)N(C)C(C(=O)Nc2cc(OC)c(OC)c(OC)c2)=C1	inactive: -10.4%
Cc1nc2nc(SCC(=O)Nc3cccc(Cl)c3)nn2c(C)c1Cc1ccccc1	inactive: -8.5%

SMILES	activation
CCCCn1c(=N)c(S(=O)(=O)c2ccccc2)cc2c(=O)n3cccc(C)c3nc21	inactive: 21.4%
Cc1ccc2c(c1)c1c(c(=O)n(-c3cccc(Cl)c3)c(=O)n1CC(=O)c1ccc(Cl)cc1)n2C	inactive: -2.23%
CC(C)Cn1cc(NC(=O)NCc2ccccc2)c2ccccc2c1=O	inactive: -28%
Cc1ccccc1NC(=O)N1CCc2cc(S(=O)(=O)N3CCC(C)CC3)ccc21	inactive: -11.7%
COc1ccc(-c2nc(C)c(CCNC(=O)c3ccc(F)c(F)c3)s2)cc1	inactive: -36.5%
Cc1ccccc1CNC(=O)c1cccc(NC(=O)c2nsc3ccccc23)c1	inactive: -4.49%
COc1ccc(-c2cn3cccnc3n2)cc1NC(=O)COc1ccccc1	inactive: -9.6%
Cc1c(CC(=O)N2CCCCC2)c(=O)oc2cc3occ(C(C)(C)C)c3cc12	inactive: -17.1%
CCC1=Nc2cc(C(=O)NCc3ccccc3OC)ccc2Sc2ccc(Cl)cc21	inactive: -3.61%
O=S(=O)(NCc1ccccc1Cl)c1ccc(-c2cnc(C3CC3)o2)cc1	inactive: 0.0687%
COc1ccc(N2C(=O)CSC23C(=O)N(Cc2ccccc2F)c2ccccc23)cc1Cl (stereo not given)	inactive: -34%
Cc1ccc(OCC(=O)Nc2ccc(OCc3cc(=O)n4ccsc4n3)cc2)cc1	inactive: -3.41%
CCC(=O)N1c2ccccc2CC1C(=O)NCCc1ccccc1Cl (stereo not given)	inactive: -2.78%
Cc1ccc(S(=O)(=O)C2(C(=O)Nc3ccc(C)c(Cl)c3)CC2)cc1	inactive: -4.59%
CN1CCN(C(c2ccc(Cl)cc2Cl)c2sc3nc(-c4ccco4)nn3c2O)CC1 (stereo not given)	inactive: -9.47%
Cn1nc(C(=O)NCc2cccc(Cl)c2)c2c1-c1ccccc1SC2	inactive: -11.2%
COCCNc1ncnc2c1cnn2-c1cc(Cl)ccc1C	inactive: -8.31%
Cc1cc(C)c2c(n1)SCC(=O)N2CC(=O)Nc1ccc(C)c(C)c1	inactive: -7.86%
O=C(NCc1ccc(Cl)cc1)c1ccc(NC(=O)N2CC3CCCN3c3ccccc32)cc1 (stereo not given)	inactive: -9.8%
CC1=C(c2ccc(C)cc2)S(=O)(=O)NC1=NCCCN1CCN(c2cc(C)ccc2C)CC1	inactive: 4.69%
COc1ccc(N2CCN(CC(O)COc3ccc(C)cc3C)CC2)cc1 (stereo not given)	inactive: -23.2%
Cc1ccc(CNC(=O)CCS(=O)(=O)c2cc3c(cc2Cl)NC(=O)CO3)cc1	inactive: -2.26%
CC(C)(C)C(=O)NC1(C(F)(F)F)NC(=O)N(c2ccc(F)cc2)C1=O (stereo not given)	inactive: -6.74%
COc1ccc(N2CCN(c3ncnc4c3cnn4-c3ccc(C)c(Cl)c3)CC2)cc1	inactive: -18%

SMILES	activation
Cc1ccc(Cl)cc1N1CCN(C(=O)CN2C(=O)COc3ccc(S(=O)(=O)N4CCC(C)CC4)cc32)CC1	inactive: 4.55%
CCOc1ccccc1CNS(=O)(=O)c1ccc2c(c1)C(C)(C)C(=O)N2C	inactive: 7.97%
O=C(NCc1ccc(F)cc1)c1cc(Sc2ccc(F)cc2F)nc2ccccc12	inactive: -15.9%
Cc1c(C(=O)NCc2ccccc2Cl)sc2nc(-c3ccc(F)cc3)cn12	inactive: 1.67%
CCC(=O)N1CCc2cc(S(=O)(=O)NC(C(=O)NCc3ccccc3Cl)C(C)C)ccc21 (stereo not given)	inactive: -15.2%
COc1ccc(CNC(=O)c2ccc(-c3nc(CSc4ccc(C)cc4)c(C)o3)cc2)cc1OC	inactive: -15.2%
Cc1nn(C(=O)c2ccccc2)c(C)c1S(=O)(=O)N1CCOCC1	inactive: 7.21%
CCOC(=O)C1CCN(C(=O)Cn2c(-c3cccs3)cc3cc(Cl)ccc32)CC1	inactive: -8.24%
CCOC(=O)CN(Cc1ccccc1)C(C(=O)NC1CCCCC1)c1ccc(C)cc1 (stereo not given)	inactive: -23.6%
COc1ccc(NC(=O)Cn2nc(SC)c(S(=O)(=O)c3ccc(C)cc3)c2N)cc1OC	inactive: -1.01%
CCN(CC)CCCNC(=O)CSc1nc2nc(C)c(Cc3ccccc3C)c(C)n2n1	inactive: 0.283%
COCCN(Cc1ccco1)C(=O)c1cc2c(Cl)nc3ccc(C)cc3c2s1	inactive: -3.99%
Fc1ccccc1N1CCN(c2ncnc3c2nc2n3CCCCC2)CC1	inactive: -10.6%
COc1ccc(CNc2nc3c(-c4ccc(C)cc4)nnn3c3ccccc23)cc1	inactive: -3.68%
CCC(=O)N1CCc2cc(Br)cc(S(=O)(=O)CCC(=O)N(C)c3cccc(C)c3)c21	inactive: -13.8%
CCOc1ccc(NC(=O)CC2C(=O)N(c3ccc(F)cc3)C(=O)N2CCc2sccc2C)cc1 (stereo not given)	inactive: -15.4%
O=C(O)c1ccc2oc(=O)n(Cc3ccccc3)c2c1	inactive: -18%
O=C(Nc1c(Cl)cccc1Cl)c1cccc2c1C(=O)N(C1CCCCC1)C2	inactive: -18.8%
COc1ccc(-n2nc(C(=O)NCCCOC(C)C)c3c4ccccc4n(C)c3c2=O)cc1	inactive: -12%
CCOC(=O)c1cc2c(=O)n3ccccc3nc2n(CCCOC)c1=NC(=O)c1c(-c2ccccc2Cl)noc1C	inactive: -8.05%
CCCS(=O)(=O)NCCc1csc2nc(-c3ccc(C)cc3)nn12	inactive: -4.39%
CN(C(=O)Cn1c(=O)n(CCC(=O)NCc2ccc3c(c2)OCO3)c(=O)c2sccc21)c1ccccc1	inactive: -6.98%
Cc1ccc(-n2ncc(C(=O)N3CCN(C4CCCCC4)CC3)c2C2CCN(C(=O)OC(C)(C)C)CC2)cc1C	inactive: -6.72%
